Measured values published in the supplement of paper PMC7826260.
This is one part of the list. Each Rep nickase domain was tested in vitro on the same pool of single strands for 1 h at 37 °C with 3 µM enzyme; only the middle of the 90-letter strands is printed. The score is log2 (uncut reads / reads without enzyme); more negative means more cut, near 0 not cut, and no call is made. Counts are relative to all reads; values above 0 arise when much of the pool is cut.

Key:
Test in all cases: uncleaved DNA left, log2 of reads against the no-enzyme library (log2 ratio); higher = less cleavage (more negative = more Rep cleavage of the k-mer); sequences stand for … in CTCGTCCG…ACCGGAGA
[1] = system: T1, Rep nickase domain of Muscovy duck circovirus
T1 sequence (Rep 1-111, printed without the tag): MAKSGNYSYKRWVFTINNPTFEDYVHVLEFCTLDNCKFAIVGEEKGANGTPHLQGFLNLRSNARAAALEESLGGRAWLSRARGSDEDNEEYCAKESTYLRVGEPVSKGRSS
Description: (§1)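 A pool of 90-nt single-stranded DNAs with seven random bases just before the constant AC of the nick site (name = the seven bases) was cut by 3 µM recombinant His6-SUMO-tagged Rep nickase domain (300 nM DNA, 50 mM HEPES pH 8.0, 50 mM NaCl, 1 mM MnCl2, 1 h, 37 °C, three replicates). Uncut DNA was amplified and sequenced.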

[2] = system: T2, Rep nickase domain of banana bunchy top virus
T2 sequence (Rep 1-94, printed without the tag): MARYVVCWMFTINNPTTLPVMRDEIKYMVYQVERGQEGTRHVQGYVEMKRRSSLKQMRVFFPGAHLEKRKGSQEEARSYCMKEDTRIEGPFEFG
Description: as §1

[3] = system: T3, Rep nickase domain of cabbage leaf curl virus
T3 sequence (Rep 1-116, printed without the tag): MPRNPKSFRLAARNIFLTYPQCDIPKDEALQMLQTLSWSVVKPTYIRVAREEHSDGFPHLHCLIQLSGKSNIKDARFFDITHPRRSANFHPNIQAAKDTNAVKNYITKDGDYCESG
Description: as §1

[4] = system: T4, Rep nickase domain of chickpea chlorotic dwarf virus
T4 sequence (Rep 1-124, printed without the tag): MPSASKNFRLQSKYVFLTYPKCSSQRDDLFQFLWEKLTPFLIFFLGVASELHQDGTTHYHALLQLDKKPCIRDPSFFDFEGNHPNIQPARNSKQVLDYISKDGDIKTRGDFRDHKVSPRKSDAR
Description: as §1

[5] = system: T5, Rep nickase domain of faba bean necrotic yellows virus
T5 sequence (Rep 1-98, printed without the tag): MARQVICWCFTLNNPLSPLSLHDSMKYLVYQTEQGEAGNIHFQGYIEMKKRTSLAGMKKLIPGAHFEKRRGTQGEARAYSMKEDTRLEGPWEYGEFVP
Description: as §1

[6] = system: T6, Rep nickase domain of maize striate mosaic virus
T6 sequence (Rep 1-117, printed without the tag): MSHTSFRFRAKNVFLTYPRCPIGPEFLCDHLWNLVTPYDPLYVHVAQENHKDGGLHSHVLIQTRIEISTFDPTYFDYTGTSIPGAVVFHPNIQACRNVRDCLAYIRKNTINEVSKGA
Description: as §1

[7] = system: T7, Rep nickase domain of porcine circovirus 2
T7 sequence (Rep 2-116, printed without the tag): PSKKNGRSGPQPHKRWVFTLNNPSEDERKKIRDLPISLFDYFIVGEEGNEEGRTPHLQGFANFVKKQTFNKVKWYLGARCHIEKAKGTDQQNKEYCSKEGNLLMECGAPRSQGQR
Description: as §1

[8] = system: T8, Rep nickase domain of tomato golden mosaic virus
T8 sequence (Rep 1-124, printed without the tag): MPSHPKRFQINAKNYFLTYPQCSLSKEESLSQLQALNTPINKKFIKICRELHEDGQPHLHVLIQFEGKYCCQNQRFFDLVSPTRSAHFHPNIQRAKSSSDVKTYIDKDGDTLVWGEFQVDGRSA
Description: as §1

[9] = system: T9, Rep nickase domain of tomato yellow leaf curl virus
T9 sequence (Rep 1-136, printed without the tag): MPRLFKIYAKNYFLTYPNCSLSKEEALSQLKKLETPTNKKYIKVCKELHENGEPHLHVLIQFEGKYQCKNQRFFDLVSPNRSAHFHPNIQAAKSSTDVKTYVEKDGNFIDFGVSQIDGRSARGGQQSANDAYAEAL
Description: as §1

[10] = system: T10, Rep nickase domain of wheat dwarf virus
T10 sequence (Rep 1-137, printed without the tag): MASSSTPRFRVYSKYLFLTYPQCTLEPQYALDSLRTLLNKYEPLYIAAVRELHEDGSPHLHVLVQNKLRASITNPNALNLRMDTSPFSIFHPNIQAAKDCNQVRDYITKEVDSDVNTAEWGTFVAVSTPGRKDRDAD
Description: as §1

Sequence | uncleaved DNA left (log2) [1] | uncleaved DNA left (log2) [2] | uncleaved DNA left (log2) [3] | uncleaved DNA left (log2) [4] | uncleaved DNA left (log2) [5] | uncleaved DNA left (log2) [6] | uncleaved DNA left (log2) [7] | uncleaved DNA left (log2) [8] | uncleaved DNA left (log2) [9] | uncleaved DNA left (log2) [10]
ACTCAAG | 0.0766 | 0.0128 | -0.797 | -0.107 | 0.096 | -0.894 | 0.23 | 0.0786 | 0.11 | -0.149
AGAGCCT | 0.238 | 0.189 | 0.886 | 1.52 | 0.178 | 2.13 | 0.165 | 0.116 | 0.0238 | 0.234
GATTTGA | 0.0933 | 0.122 | 0.362 | 0.598 | 0.0208 | 0.294 | 0.0912 | 0.1 | 0.192 | 0.128
AAAGTGT | 0.19 | 0.0799 | 0.122 | 0.614 | 0.1 | 0.742 | 0.207 | 0.163 | 0.0404 | 0.0443
TAATACG | -0.0056 | 0.0365 | -0.827 | -1.28 | 0.0792 | -1.13 | -0.232 | 0.127 | 0.0296 | -0.00144
GGGGAAC | 0.00268 | 0.116 | 0.758 | 1.79 | -0.0168 | 2.25 | 0.189 | 0.0873 | -0.0255 | 0.139
GGGACAC | 0.0709 | 0.0637 | 0.907 | 2.13 | 0.00711 | 2.38 | 0.224 | 0.0605 | -0.147 | 0.203
GTTCGTT | 0.0436 | -0.0589 | 0.231 | 0.688 | 0.015 | 1.44 | -0.0526 | -0.0755 | -0.0128 | 0.00565
CCCCGTC | -0.138 | -0.309 | -0.12 | -0.228 | -0.122 | -0.499 | 0.00788 | -0.119 | -0.19 | -0.257
AACTGCT | -2.28 | -0.575 | -0.653 | -1.15 | 0.0995 | -0.889 | -3.6 | -0.0547 | 0.0683 | -0.0103
AAGGTTC | -0.0516 | -0.239 | 0.0544 | 0.601 | -0.203 | 0.633 | -0.00813 | -0.0671 | -0.151 | -0.213
GTTGCAT | 0.0682 | 0.151 | 0.401 | 1.01 | 0.0504 | 0.918 | 0.174 | 0.0523 | 0.137 | 0.0524
AGATATC | -0.0115 | 0.0466 | 0.435 | 0.743 | 0.107 | 0.233 | 0.134 | 0.0212 | 0.0708 | 0.0617
CGTGTGA | -0.117 | -0.141 | -0.388 | -0.237 | -0.0804 | -0.809 | -0.122 | -0.221 | -0.0553 | -0.192
TATCTCC | 0.0993 | -0.00199 | -0.05 | 0.0586 | 0.0203 | 1.49 | 0.0587 | -0.0404 | 0.00803 | -0.014
